Assay results from the supplement of paper PMC3334620.
The full ranking holds about 33,000 sequences; the median of “E-score (-0.5 to 0.5)” is about -0.021, and the highest 2% start at about 0.32. This is one part of the list.

target: T1, Zap1 (UniProt P47043); test: PBM E-score (8-mer binding enrichment) (E-score (-0.5 to 0.5)); higher = stronger / more preferred TF binding; most listed sequences are background and not binding sites; details: protein concentration: 200 nM; construct: GST-full length
T1 sequence: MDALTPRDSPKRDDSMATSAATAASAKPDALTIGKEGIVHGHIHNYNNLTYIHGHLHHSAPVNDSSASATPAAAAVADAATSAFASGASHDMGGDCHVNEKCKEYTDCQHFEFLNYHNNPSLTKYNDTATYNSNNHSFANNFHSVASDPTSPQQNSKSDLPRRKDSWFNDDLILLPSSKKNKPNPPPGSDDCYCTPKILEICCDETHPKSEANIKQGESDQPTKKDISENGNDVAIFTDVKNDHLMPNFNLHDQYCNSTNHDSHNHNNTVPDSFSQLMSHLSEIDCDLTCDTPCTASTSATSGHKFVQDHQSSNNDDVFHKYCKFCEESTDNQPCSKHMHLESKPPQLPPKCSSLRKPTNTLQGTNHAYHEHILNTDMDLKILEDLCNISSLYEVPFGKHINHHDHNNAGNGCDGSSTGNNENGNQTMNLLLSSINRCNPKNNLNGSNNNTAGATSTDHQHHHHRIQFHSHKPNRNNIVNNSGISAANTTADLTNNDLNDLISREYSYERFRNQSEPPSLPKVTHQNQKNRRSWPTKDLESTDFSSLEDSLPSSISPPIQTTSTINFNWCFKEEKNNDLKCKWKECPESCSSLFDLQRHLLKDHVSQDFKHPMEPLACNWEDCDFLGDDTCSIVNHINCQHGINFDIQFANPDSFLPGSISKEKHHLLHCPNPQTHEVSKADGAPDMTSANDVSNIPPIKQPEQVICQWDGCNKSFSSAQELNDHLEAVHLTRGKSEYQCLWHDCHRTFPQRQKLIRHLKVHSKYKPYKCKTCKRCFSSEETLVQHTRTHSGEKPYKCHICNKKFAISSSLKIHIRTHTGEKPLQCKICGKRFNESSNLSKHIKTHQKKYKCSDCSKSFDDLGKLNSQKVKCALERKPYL
Summary of the method: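 Detection of bound protein used fluorescent anti-GST, with scans normalised by masliner. The proteins were GST-tagged yeast transcription factors applied at about 100-200 nM to universal all-10-mer Agilent arrays made double-stranded by primer extension. Each ungapped eight-base word, pooled with its reverse complement, was scored with an E-score from the Universal PBM Analysis Suite.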

Sequence | PBM E-score
GGGCTACA | -0.102
TGCGGACA | 0.0215
ACTCAAGT | -0.122
AACAACAT | -0.00187
GCGCTTAC | -0.256
CACCCGCA | -0.0495
CTCCGTGC | -0.319
ACAGGGAC | -0.0892
ATCAACAG | -0.0089
AGATAGAA | -0.183
CTTATCGA | 0.0845
TAAACCCA | 0.304
ACACTATA | 0.129
GTCTATAA | 0.163
CATGAGGC | -0.147
GGTATATA | 0.315
AGCTCCAT | -0.233
AAGATAGG | -0.118
AGCATATG | -0.0974
ATTGGGGC | -0.0366
AAGGCCCG | -0.247
ACAAATCG | 0.075

Sequence | PBM E-score
GCGATGCC | -0.115
GTGAGCAA | -0.0348
GAGTCAGC | -0.252
CCTAGGAC | -0.0226
CCCCTCAC | 0.00662
GCTTCTGA | 0.00394
GGAACTTA | 0.00413
AGACATGA | -0.274
AAGAGCGT | -0.0279
GCTACGCA | -0.186
ATTCACAC | -0.088
GGCCTCCC | -0.079
ACTCCCAT | -0.219
AGAATTCA | 0.0136
CTTCTGGA | 0.107
TGCTTCCA | -0.284
AGGGCCAG | -0.0924
ACTGCAGT | -0.0604
CGCTGTAA | 0.148
ACGAACAT | 0.0966
ACACATTG | 0.0809
TTATACAA | 0.275

Sequence | PBM E-score
ATTGACTG | -0.136
ATTTTCGG | 0.129
CCGGGACG | -0.205
CATCTCCA | -0.0871
ATAAGGAA | 0.0781
GGGATTAA | -0.0499
GACATGCC | -0.159
AGAAATCT | -0.0876
GTCATCTA | 0.0299
AGCCCTAC | -0.12
GTGTTGCA | -0.0574
CAATAGCG | -0.0495
CTATTAAC | 0.217
TGGGAGAA | -0.157
ATCAGCCG | -0.144
ACATCCGC | -0.0826
ACAGGAGA | -0.00479
ACAGGATG | 0.0755
CATCCGAC | 0.0183
ACTCCCAG | -0.0908
ACAGATGT | -0.266
GCGCGCGA | 0.017

Sequence | PBM E-score
ACTTGGAG | -0.226
AGTCGACT | 0.119
ACTATGGC | -0.0314
AGGTTTGC | 0.109
GGTGCGCA | 0.0404
AGTGTGGA | 0.00926
ATTCGACG | 0.0764
ATACCCAC | 0.224
TATTCAAA | 0.235
GACGAAAC | -0.104
ACATTCCC | -0.0945
CTCATCAG | 0.116
GCTTCACC | -0.263
CAGCGTGA | -0.023
AGGACCGA | -0.116
AGGATTTA | -0.0767
ATGTTTAG | 0.0793
TCTCCCAA | -0.00482
AGTGTCAT | -0.109
AAGATAAA | 0.176
